From PubChem BioAssay AID1508623 (National Center for Advancing Translational Sciences (NCATS), 2021)
Screen size: about 48,000 compounds; about 450 (0.94%) were called active. Inconclusive results (about 19%) are left out. Calls come from the whole dose curve; as a rule, active = well fitted inhibition curve with a large enough effect; inconclusive = small, poorly fitted or top-dose-only effect; inactive = no such curve, though single readings can be large or run the other way. Some of the results follow.

Assay: Primary qHTS for Identification of Small Molecule Inhibitors of Huntingtin Promoter Activity; note: nearly all actives have a fitted effect of over 50% in size
Settings: HEK293 HTT promoter firefly luciferase reporter (activity 0% = vehicle and -100% = no light), 24 h; series mostly up to 57.5 µM; activity change, negative = inhibition: at the top concentration
Procedure, shortened: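 Firefly luciferase readout (Dual-Glo, 10 min RT) after 24 h, 37 °C compound exposure (final up to 57.5 uM) of HEK293 reporter cells cultured 24 h beforehand; PTC124 at 50 uM final as control inhibitor; activity scaled vehicle 0%, zero RLU -100%.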

Activity change, negative = inhibition, inactive:
CC(C)COc1ccc(C(=O)N2CCN(CCc3ccccn3)CC2)cc1 -14.1%, COc1cccc(C2c3c(-c4ccccc4O)n[nH]c3C(=O)N2CCc2ccc(OC)c(OC)c2)c1 (stereo unspecified) -29.9%, CCOc1nc(-c2ccc(C)cc2)ccc1-c1noc(-c2ccccc2F)n1 -8.69%, CCc1ccc(-c2nc(-c3cc4ccccc4oc3=O)sc2C)cc1 -6.46%, Cc1ccc(Sc2c(C(=O)NCc3ccccc3C)[nH]c3ccccc23)cc1 3.18%, Nc1ncnc2c1c(-c1cccc(OCc3ccccc3)c1)cn2C1CC(CN2CCCC2)C1 (stereo unspecified) -27.4%, Cc1ccc(-c2nc3ccc(Cl)cn3c2Nc2ccc3c(c2)OCCO3)s1 36.4%, COc1ccc(CNC(=O)CN2C(=O)CCCc3ccccc32)cc1 20.4%, CCN(CC)S(=O)(=O)c1ccc2oc(C(=O)Nc3ccc(Br)cc3F)c(C)c2c1 -14.1%, COc1ccc(CCNC(=O)CCc2c(C)c3cc4c(C)c(C)oc4cc3oc2=O)cc1 1.29%, COc1ccc(NC(=O)CC(C)n2nc(C)cc2C)cc1Cl (stereo unspecified) -4.24%, CCOc1ccc(CCNC(=O)Cn2ncn3c(cc4ccccc43)c2=O)cc1OCC -4.66%, CCn1c(C(=O)Nc2cc(Cl)ccc2C)cc2sc(Cl)cc21 -29.6%, Cc1cccc(-n2ccnc2SCC(=O)Nc2nc3ccccc3s2)c1 -5.15%, CCOC(=O)C(=O)Nc1c(C(=O)Nc2cccc(F)c2)oc2ccccc12 -1.46%, COc1ccccc1N1CCN(c2nc3c(S(=O)(=O)c4ccc(C)c(C)c4)nnn3c3ccc(Cl)cc23)CC1 -8%, CCN(CCCNC(=O)c1nn(-c2ccc(OC)c(Cl)c2)c(=O)c2c1c1ccccc1n2C)c1cccc(C)c1 -15.9%, Cc1cccc(-c2nc(SCC(=O)NCc3ccco3)c3c(=O)n(C)c(=O)n(C)c3n2)c1 -1.34%, Cc1ccc(Cn2c(CNS(=O)(=O)c3ccc(Cl)s3)nc3cccnc32)cc1 -2.06%, CCc1ccccc1Nc1cc(C(=O)NC2CCC(C)CC2)c2ccccc2n1 (stereo unspecified) 39%, CCc1c(C)sc(NC(=O)C2c3ccccc3Oc3ccccc32)c1C(=O)OC(C)C -4.17%, CN(C)c1ccc(C2Nc3ccc4ccccc4c3C3=C2C(=O)CC(C)(C)C3)cc1Br (stereo unspecified) -12.5%, COc1ccc(CNC(=O)c2cc(-c3ccc(C)c(C)c3)n[nH]2)cc1 51.3%, CCOC(=O)c1cccc(NC(=O)C2CCCN(c3nnc(C)c4c(C)n(-c5ccccc5)nc34)C2)c1 (stereo unspecified) -3.36%, COc1ccc(OC)c(C2C(C(=O)Nc3ccccc3OC)=C(C)Nc3c(C(=O)Nc4ccc(F)cc4)cnn32)c1 (stereo unspecified) -16.1%, Cc1ccc(-c2nnc3ccccc3c2C(=O)Nc2cccc(Cl)c2)cc1 10.4%, Cn1c(=O)c(=O)n(C)c2cc(N3CCOCC3)c(NS(=O)(=O)c3ccc(F)c(Cl)c3)cc21 -8.73%, COc1ccc(NC(=O)c2cc3cc(C)ccc3n2C)cc1 3.13%, CC(C)(C)OC(=O)N1CCC(c2c(C(=O)NCc3ccc4c(c3)OCO4)cnn2-c2ccccc2Cl)CC1 1.95%, COc1ccc(C(=O)Nc2nnc(S(=O)(=O)N(CC(C)C)c3ccccc3)s2)cc1 -5.88%, COc1ccc(NC(=O)c2ccc3c(c2)nnn3C2CCCC2)cc1Cl -15.4%, Cc1ccc(Cl)cc1NC(=O)c1ccc2snnc2c1 -10.3%, COc1cc(NC(=O)NCCn2nnc3cc(S(=O)(=O)N(C)C)ccc32)cc(OC)c1 -6.43%, CC1=C(C(N)=O)C(c2ccc(F)cc2)n2nc(-c3ccc(N(C)C)cc3)nc2N1 (stereo unspecified) -15.2%, CNS(=O)(=O)c1cn(CC(=O)Nc2ccc(C)c(N(C)C)c2)cc1S(=O)(=O)NC 7.6%, Cc1ccc2c(=O)c(C(=O)c3ccc(F)cc3)cn(CC(=O)NCc3ccccc3Cl)c2n1 1.09%, Cc1ccc(-c2nn(CC(=O)NC3CCCCC3)c3c2cnc2ccccc23)cc1 0%, Oc1ccc(C(O)CNCCCCCCNCC(O)c2ccc(O)c(O)c2)cc1O (stereo unspecified) -5.64%, CCCCCc1ccc(-c2ccc(C(=O)Oc3ccc(C(=O)OC)cc3)cc2)nc1 -29.3%, COc1ccc(CNc2nc(-c3ccc(Cl)cc3)nn2C(=O)c2ccccc2)cc1 -2.17%, COc1ccccc1CNC(=O)c1ccc(CSc2nc3ccncc3n2Cc2ccccc2C)cc1 -33.6%, Cc1ccc(S(=O)(=O)C2(C(=O)Nc3ccc(C(C)C)cc3)CC2)cc1 50.1%, Cc1ccc(-n2ncc(C(=O)N3CCN(c4ncccn4)CC3)c2C2CCN(C(=O)OC(C)(C)C)CC2)cc1 1.55%, Cc1cc(C)cc(N2C(=O)CS(=O)(=O)C23C(=O)N(C)c2ccccc23)c1 (stereo unspecified) -9.52%, Cc1nc(-c2ccc(S(=O)(=O)N(C)Cc3ccccc3)cc2)co1 -3.87%, CCn1c2ccccc2c2nnc(N3CCN(c4ccc(OC)cc4)CC3)nc21 5.1%, CCOC(=O)Cn1nc(C)c(NC(=O)COc2ccc(C)c(C)c2)c1C 16.6%, CCN(CC)C(=O)CSc1cn(CC(=O)N2CCCCCC2)c2ccccc12 -8.1%, Cc1ccc(NC(=O)C2CCN(c3nc4ccccc4nc3C(F)(F)F)CC2)cc1C -9.74%, CCCN(CCC)S(=O)(=O)c1ccc(N2CCCCS2(=O)=O)cc1 -23.1%, COc1cc2ncnc(Nc3cc(Br)c(O)c(Br)c3)c2cc1OC -20.4%, Fc1ccc([C@@H]2Nc3ccccc3[C@@H]3C=CC[C@@H]32)cc1 -22.3%, Cc1ccc(C)c(NC(=O)CSc2ncc3c(n2)-c2ccccc2N(Cc2ccccc2C)S3(=O)=O)c1 -14.2%, COc1ccc(/C=C/c2nc(C#N)c(N3CCCCCC3)o2)cc1OC -15.7%, O=C(Cn1cc(S(=O)(=O)c2ccc(Cl)cc2)c(=O)c2ccccc21)Nc1ccc2c(c1)OCO2 -30%, COc1ccc(CNS(=O)(=O)c2ccc3c(c2)NC(=O)C(C)C(=O)N3)cc1 (stereo unspecified) -20.7%, Cc1nnc(N2CCC(C(=O)N3CCCCC3)CC2)c2nn(-c3ccccc3)c(C)c12 -13.9%, Cc1ccc(C)c(Nc2ncnc3c2cnn3-c2ccc(F)cc2)c1 31.1%, COc1ccc(CNc2n[nH]c(-c3ccco3)n2)cc1OC -9.71%, CCc1ccc(Nc2ncnc3sc4c(c23)CCCC4)cc1 -23.8%, COc1cc(NC(=O)Cn2c(=O)n(Cc3ccccc3Cl)c(=O)c3cc(OC)c(OC)cc32)cc(OC)c1 -5.19%
